{"source": "PubChem BioAssay AID1030", "about": "(National Center for Advancing Translational Sciences (NCATS), 2008)", "note": "In all, about 220,000 compounds went through this assay and about 16,000 (7.3%) were called active. Inconclusive results, whose numbers are uncertain, are shown with a selection of clear calls. The call rests on the fitted dose curve; in most records, active means well fitted inhibition curve with a large enough effect (not every such curve was filed as active); inconclusive means small, poorly fitted or top-dose-only effect, or another doubt; inactive means no such curve, though single readings can be large or run the other way. Potencies of inconclusive entries are left out as doubtful fits. Potency means the concentration at half of the fitted maximal effect; tags describe the fitted curve by direction and shape.", "data": [{"target": "Aldehyde dehydrogenase 1A1 (Homo sapiens) (UniProt P00352)", "sequence (P00352 whole entry, looked up)": "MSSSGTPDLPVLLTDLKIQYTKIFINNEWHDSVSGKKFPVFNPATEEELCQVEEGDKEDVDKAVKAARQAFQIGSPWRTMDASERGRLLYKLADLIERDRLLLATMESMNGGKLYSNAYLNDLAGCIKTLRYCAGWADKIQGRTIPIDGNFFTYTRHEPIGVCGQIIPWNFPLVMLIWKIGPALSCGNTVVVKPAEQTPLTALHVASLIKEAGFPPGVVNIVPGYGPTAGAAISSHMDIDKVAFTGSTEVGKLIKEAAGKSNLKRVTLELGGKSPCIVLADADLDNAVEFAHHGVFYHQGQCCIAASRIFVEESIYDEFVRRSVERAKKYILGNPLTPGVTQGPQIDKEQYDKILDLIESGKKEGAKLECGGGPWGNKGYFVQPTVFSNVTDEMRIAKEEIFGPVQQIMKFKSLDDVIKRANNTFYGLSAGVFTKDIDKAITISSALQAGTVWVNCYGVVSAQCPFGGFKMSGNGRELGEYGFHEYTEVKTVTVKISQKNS", "test": "qHTS Assay for Inhibitors of Aldehyde Dehydrogenase 1 (ALDH1A1);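 on activity, negative = inhibition: plate controls were no enzyme wells and a reference inhibitor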", "conditions": "Purified ALDH1A1, NADH fluorescence, propionaldehyde substrate; series mostly up to 75.3 µM; activity, negative = inhibition: at the top concentration", "values": [{"smiles": "COCCNC(=O)c1ccc(NC(C)=O)cc1", "activity, negative = inhibition": "inactive: -2.47%"}, {"smiles": "COc1ccc2c(c1OC)OCC(c1ccc(OC)c(OC)c1OC)C2", "note": "(stereo not given)", "activity, negative = inhibition": "inactive: -1.8%"}, {"smiles": "O=P(O)(CCP(=O)(O)c1ccccc1)c1ccccc1", "activity, negative = inhibition": "inactive: -1.79% [at 13.5 µM]"}, {"smiles": "CCOC(=O)c1ccc(N=c2ssnc2Cl)cc1", "Potency": "active: 2 µM"}, {"smiles": "CCOC(=O)c1sc(-c2ccc(OC)cc2)cc1N", "Potency": "inconclusive [inhibitor, partial curve]"}, {"smiles": "Cc1sc2nc(SCC(=O)c3cc(C)n(CC4CCCO4)c3C)n(C(C)C)c(=O)c2c1C", "note": "(stereo not given)", "activity, negative = inhibition": "inactive: -8.96%"}, {"smiles": "CCCCCC(=O)NC(NC(=S)NC1CCS(=O)(=O)C1)C(Cl)(Cl)Cl", "note": "(stereo not given)", "Potency": "inconclusive [inhibitor, single point]"}, {"smiles": "Cc1cccn2c(=O)c3cc(C#N)c(=N)n(CCN4CCOCC4)c3nc12", "Potency": "inconclusive [inhibitor, partial curve]"}, {"smiles": "COC(=O)c1cc(OC)c(OC)cc1NC(=O)c1ccccc1C", "activity, negative = inhibition": "inactive: 6.36%"}, {"smiles": "Cc1cccc(-n2c(CCN3C(=O)c4ccccc4C3=O)nc3ccccc3c2=O)n1", "Potency": "inconclusive [inhibitor, single point]"}, {"smiles": "CCCCC(c1nnnn1C1CCCC1)N1CCN(C(=O)c2ccco2)CC1", "note": "(stereo not given)", "Potency": "active: 11.2 µM"}, {"smiles": "CCc1ccc(NC(=O)C2CC(=O)N=C(N)S2)cc1", "note": "(stereo not given)", "activity, negative = inhibition": "inactive: -5.66%"}, {"smiles": "COc1ccc(-n2c(C)nc3c(cnn3-c3ccc(C)c(C)c3)c2=O)cc1", "Potency": "inconclusive [inhibitor, single point]"}, {"smiles": "Cc1nc2ccccc2nc1-c1ccc(N=[N+]([O-])c2ccc(-c3nc4ccccc4nc3C)cc2)cc1", "activity, negative = inhibition": "inactive: 2.03% [at 13.5 µM]"}, {"smiles": "COc1ccc(CN(CC2CCC(C(=O)O)CC2)C(=S)Nc2ccc(C)c(Cl)c2)cc1", "note": "(stereo not given)", "Potency": "inconclusive [inhibitor, single point]"}, {"smiles": "O=C(CSc1nnnn1C1CCCC1)Nc1ccccc1N1CCOCC1", "Potency": "inconclusive [inhibitor, single point]"}, {"smiles": "CCc1nnc(NC(=O)CSc2nnc(Cc3cc(=O)[nH]c(=O)[nH]3)n2-c2cccc(OC)c2)s1", "Potency": "inconclusive [inhibitor, single point]"}, {"smiles": "Cc1ccc(CSCCNC(=O)c2ccc(N(C)S(=O)(=O)c3ccccc3)cc2)cc1", "Potency": "inconclusive [inhibitor, single point]"}, {"smiles": "COc1cc([N+](=O)[O-])cc(/C=N/N(CCC#N)C(C)=O)c1O", "Potency": "active: 10 µM"}, {"smiles": "O=c1oc2ccccc2n1CCc1ccccc1", "Potency": "inconclusive [inhibitor, single point]"}, {"smiles": "COc1cc(C)c(Cl)cc1S(=O)(=O)NCc1ccncc1", "Potency": "inconclusive [inhibitor, single point]"}, {"smiles": "CN(/N=C/c1ccc(C(C)(C)C)cc1)C1=NCCN1", "Potency": "inconclusive [inhibitor, single point]"}, {"smiles": "COc1ccc(S(=O)(=O)N2CCC(C(=O)NCc3cccs3)CC2)cc1", "activity, negative = inhibition": "inactive: -0.936%"}, {"smiles": "CC1(C)CC2CC(C)(CN2C(=O)COC(=O)CNC(=O)c2ccc(Cl)c(Cl)c2)C1", "note": "(stereo not given)", "Potency": "inconclusive [inhibitor, single point]"}, {"smiles": "CCOC(=O)N1CCN(Cc2nc3c(c(=O)[nH]c(=O)n3C)n2CCCc2ccccc2)CC1", "Potency": "inconclusive [inhibitor, full curve]"}, {"smiles": "CCOC(=O)N1CCC(N2Cc3cccc(C(=O)Nc4cccc(F)c4)c3C2=O)CC1", "Potency": "inconclusive [inhibitor, single point]"}, {"smiles": "CCOC(=O)c1ccc(NC(=O)N2CCN(c3cccc(OC)c3)CC2)cc1", "Potency": "inconclusive [inhibitor, partial curve]"}, {"smiles": "CCc1ccc(Nc2nnc(SCC(=O)Nc3sccc3C(N)=O)s2)cc1", "Potency": "inconclusive [inhibitor, single point]"}, {"smiles": "COc1cc2c(C(=O)N3CCN(C)CC3)c(C)n(-c3ccccc3)c2cc1Br", "Potency": "inconclusive [inhibitor, partial curve]"}, {"smiles": "N#CC1=C2SCN(c3ccc(F)cc3)CN2C(=O)CC1c1cccc(F)c1", "note": "(stereo not given)", "Potency": "active: 1.89 µM"}, {"smiles": "S=C(Nc1cccnc1)Nc1cccc2cnccc12", "Potency": "active: 12.6 µM"}, {"smiles": "CCN(CC)S(=O)(=O)N1CCC(C(=O)NC2CCCC2)CC1", "Potency": "inconclusive [inhibitor, partial curve]"}, {"smiles": "COc1ccccc1-c1ccc(SCc2ccc([N+](=O)[O-])cc2)nn1", "activity, negative = inhibition": "inactive: 2.56%"}, {"smiles": "CC(=O)c1ccc(NC(=O)CCSCCC(=O)Nc2ccc(C(C)=O)cc2)cc1", "Potency": "active: 39.8 µM"}, {"smiles": "N=c1oc2ccccc2cc1-c1nc(-c2ccc(Cl)cc2)cs1", "Potency": "inconclusive [inhibitor, partial curve]"}, {"smiles": "O=C(c1oc2ccccc2c1CSCc1ccccc1)N1CCN(c2ncccn2)CC1", "Potency": "active: 12.6 µM"}, {"smiles": "O=c1cc(C(F)(F)F)c2sc(N3CCCCC3)nc2[nH]1", "Potency": "inconclusive [inhibitor, full curve]"}, {"smiles": "CN(C)CCN(C)Cc1ccc2c(c1)Cc1ccccc1-2", "Potency": "active: 11.2 µM"}, {"smiles": "O=C(N/N=C/c1ccco1)c1cc(-c2ccccc2)n[nH]1", "activity, negative = inhibition": "inactive: -7.53%"}, {"smiles": "CCS(=O)(=O)Nc1cccc(C2=NN(S(=O)(=O)c3ccc(C)cc3)C(c3ccco3)C2)c1", "note": "(stereo not given)", "Potency": "inconclusive [inhibitor, partial curve]"}, {"smiles": "COc1ccc(-c2cc3nc[nH]c(=O)c3s2)cc1", "Potency": "inconclusive [inhibitor, partial curve]"}, {"smiles": "CC1=CC(C)[C@H](/C=N/n2c(=O)[nH]c3c([nH]c4ccc(C)cc43)c2=O)C(C)C1", "note": "(stereo not given in full)", "Potency": "inconclusive [inhibitor, single point]"}, {"smiles": "Cc1ccc(S(=O)(=O)CNC(=S)c2ccc3ccccc3c2)cc1", "Potency": "inconclusive [inhibitor, single point]"}, {"smiles": "CCS(=O)c1ccccc1C(=O)O", "note": "(stereo not given)", "Potency": "inconclusive [inhibitor, single point]"}, {"smiles": "COc1cc(/C=C2\\CC/C(=C\\c3ccc(OCCO)c(OC)c3)C2=O)ccc1OCCO", "Potency": "inconclusive [inhibitor, single point]"}]}]}
